From PubChem BioAssay AID624417 (National Center for Advancing Translational Sciences (NCATS), 2012)
Where “and” joins values, the source holds several entries; their conditions need not be identical. Identical values can stand only once. About 6,400 (1.6%) of roughly 410,000 compounds were called active. Inconclusive results, whose numbers are uncertain, are shown with a selection of clear calls. The call rests on the fitted dose curve; in most records, active means well fitted inhibition curve with a large enough effect; inconclusive means small, poorly fitted or top-dose-only effect; inactive means no such curve, though single readings can be large or run the other way. Potencies beside an inconclusive call are fits to weak or partial responses and may not hold up.

Target: Glucagon-like peptide 1 receptor (Homo sapiens) (UniProt P43220)
Chain of UniProt P43220 (P43220 whole entry, looked up): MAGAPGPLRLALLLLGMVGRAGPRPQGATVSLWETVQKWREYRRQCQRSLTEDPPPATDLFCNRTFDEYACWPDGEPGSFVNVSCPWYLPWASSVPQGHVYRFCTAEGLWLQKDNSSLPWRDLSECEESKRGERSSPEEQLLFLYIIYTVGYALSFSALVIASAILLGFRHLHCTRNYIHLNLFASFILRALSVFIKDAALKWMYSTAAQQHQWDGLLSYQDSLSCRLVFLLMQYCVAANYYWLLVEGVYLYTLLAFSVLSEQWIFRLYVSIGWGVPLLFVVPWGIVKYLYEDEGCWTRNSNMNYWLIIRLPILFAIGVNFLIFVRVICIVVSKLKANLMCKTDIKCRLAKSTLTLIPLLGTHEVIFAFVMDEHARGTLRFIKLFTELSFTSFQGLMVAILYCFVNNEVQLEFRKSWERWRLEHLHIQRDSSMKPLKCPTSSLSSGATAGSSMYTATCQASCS
Experiment: qHTS of GLP-1 Receptor Inverse Agonists (Inhibition Mode); further: nearly all actives have a fitted effect of over 55% in size
Details: HEK293 GLP-1R CRE-luciferase, luminescence, 24 h, GLP-1R form is constitutively active; activity change, negative = inhibition: at 38.3 µM (top of the series) unless noted
Summary of the method: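 Inverse agonism was detected as reduced cAMP-driven luciferase luminescence after 24 h compound treatment. The cells were HEK293 clones expressing constitutively active human GLP-1R with the reporter. Reporter-only and GPR119 cell lines served as counterscreen controls.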
On the % scale 0 is the no-effect control and ±100 the full control effect; potency means the concentration at half of the fitted maximal effect; tags describe the fitted curve by direction and shape.

| Compound | Potency | activity change, negative = inhibition |
| --- | --- | --- |
| COc1ccc(-n2c(C)c(C(=O)O)c3cc(OC)c4ccccc4c32)cc1 | inconclusive: 10 µM [inhibitor, partial curve] |  |
| O=[N+]([O-])c1cccc(NN=Nc2ccccc2)c1 | inconclusive: 8.91 µM [inhibitor, single point] |  |
| Cc1ccccc1/C=N/NC(=O)c1ccc(-n2cnnn2)cc1 | inconclusive: 20 µM [inhibitor, single point] |  |
| COc1cc(OC)cc(N2C(=O)CC(N3CCC(C(=O)N4CCCCC4)CC3)C2=O)c1 (stereo unspecified) |  | inactive: 2.18% |
| CC(=O)Nc1cccc(Nc2nc(-c3cccs3)nc3ccccc23)c1 | inconclusive: 3.55 µM [inhibitor, full curve] |  |
| CN(C(=O)c1ccc(Oc2ccc([N+](=O)[O-])cc2)cc1)C1CCCCC1 | inconclusive: 11.2 µM [inhibitor, partial curve, poor fit] |  |
| C=CCOc1ccc(C(c2c(C(=O)O)[nH]c3ccccc23)c2c(C(=O)O)[nH]c3ccccc23)cc1 |  | inactive: 18.9% |
| CN(C)C(=O)/C(=C\c1cccc(Oc2ccccc2)c1)NC(=O)c1ccccc1 | inconclusive: 10 µM [inhibitor, partial curve, poor fit] |  |
| Cc1ccc(NC(=O)CN(c2ccc(C)cc2)S(=O)(=O)c2cccc3nonc23)cc1 | inconclusive: 11.2 µM [inhibitor, partial curve, poor fit] and inconclusive: 10 µM [inhibitor, partial curve, poor fit] |  |
| CC1CCCCC1NC(=O)NC(=O)COC(=O)c1ccc(OC(F)F)cc1 (stereo unspecified) | inconclusive: 31.6 µM [inhibitor, single point] |  |
| Cc1nnsc1C(=O)NC1CCCc2c1cnn2-c1ccc(C(C)(C)C)cc1 (stereo unspecified) | inconclusive: 1.78 µM [inhibitor, partial curve, poor fit] |  |
| N#Cc1ccc(OCCOCCNC2CCCC2)cc1 |  | inactive: -16.1% |
| CCOC(=O)c1ccc(S(=O)(=O)N2CCN(C)CC2)cc1 |  | inactive: 1.64% |
| CCOc1ccccc1OCC(=O)OCC(=O)Nc1ncc(Cl)cc1Cl |  | inactive: 22.6% |
| CN1CCN(Cc2ccc(-c3ccc(Cl)cc3)o2)CC1 | inconclusive: 3.16 µM [inhibitor, full curve, poor fit] |  |
| CCc1ccc(C=NC23CN4CN(CN(C4)C2)C3)s1 |  | inactive: 9.48% |
| COc1ccccc1N1CCN(S(=O)(=O)CCNC(=O)C(c2ccccc2)c2ccccc2)CC1 | inconclusive: 14.1 µM [inhibitor, single point] |  |
| O=C(NC(=S)N1CCOCC1)c1cn(-c2ccccc2)nc1-c1ccc(F)cc1 | inconclusive: 10 µM [inhibitor, partial curve, poor fit] |  |
| Cc1ccc(C)c2[nH]c(=O)c(CN(CCN3CCCC3)C(=O)Nc3cccc(Cl)c3)cc12 | inconclusive: 10 µM [inhibitor, partial curve, poor fit] |  |
| COc1ccc(S(=O)(=O)N(CCc2ccccc2)CC(=O)Nc2cc(C)cc(C)c2)cc1OC | inconclusive: 28.2 µM [inhibitor, single point] |  |
| CCc1cccc(CC)c1NC(=O)COn1nnc2ccc(C(F)(F)F)cc21 | inconclusive: 2 µM [inhibitor, full curve, poor fit] |  |

| Compound | Potency | activity change, negative = inhibition |
| --- | --- | --- |
| C=CCn1c(SCC(=O)Nc2ccccc2)nc2scc(-c3cccs3)c2c1=O | inconclusive: 7.08 µM [inhibitor, partial curve, poor fit] |  |
| CCCCCCC(=O)N(O)C1CC(=O)N(c2ccc(C)cc2)C1=O (stereo unspecified) |  | inactive: 48.8% |
| Cc1cc(C(=O)CCl)c(C)n1CCc1ccccc1 | inconclusive: 12.6 µM [inhibitor, single point] |  |
| CC(=O)c1cccc(N2C(=O)CN(S(C)(=O)=O)CC2(C)C(=O)NC2CCCC2)c1 (stereo unspecified) |  | inactive: 18.2% |
| CSCc1c(C(=O)N2CCCc3ccccc32)oc2ccccc12 | active: 8.91 µM |  |
| COc1ccc(S(=O)(=O)N2CCC(C(=O)NCCc3ccc4c(c3)OCO4)CC2)cc1 | inconclusive: 10 µM [inhibitor, partial curve, poor fit] |  |
| Clc1ccc(Nc2nc(-c3ccncc3)cs2)cc1 | inconclusive: 2.82 µM [inhibitor, full curve, poor fit] |  |
| Cc1cc(N2CCC(C)CC2)nc2ccc(NC(=O)CCC(=O)N3CCN(c4ccccc4F)CC3)cc12 | inconclusive: 11.2 µM [inhibitor, single point] |  |
| CCC(NC(=O)OCc1ccccc1)C(=O)Oc1ccc2ccc(=O)oc2c1 (stereo unspecified) |  | inactive: 7.49% |
| Cn1cccc1C(=O)NC(=O)COC(=O)c1ccc(S(C)(=O)=O)c([N+](=O)[O-])c1 | inconclusive: 28.2 µM [inhibitor, single point] |  |
| COc1ccc(CN2CC(=O)N3[C@H]4c5ccc(OC)cc5OC[C@@H]4[C@H](c4ccccc4)[C@]3(C)C2=O)cc1 | inconclusive: 12.6 µM [inhibitor, partial curve, poor fit] |  |
| O=C(C[C@@H]1C/C=C\C[C@H](Cc2ccc(F)cc2)C(=O)OC[C@@H]2CCCN2C1=O)N[C@H](CO)Cc1ccccc1 | inconclusive: 31.6 µM [inhibitor, partial curve, poor fit] |  |
| COCCOC(=O)C1=C(C)N=c2s/c(=C\c3cccs3)c(=O)n2C1c1cccs1 (stereo unspecified) | inconclusive: 2.82 µM [inhibitor, full curve, poor fit] |  |
| CC(=O)c1cccc(NC(=S)NCCc2ccc(Cl)cc2)c1 | inconclusive: 10 µM [inhibitor, partial curve, poor fit] |  |
| Cc1ccc(O)c(C(=O)c2cc(C#N)c(=O)n(-c3nccs3)c2)c1 | inconclusive: 10 µM [inhibitor, single point] |  |
| COc1ccc(OC)c(NC(=O)CC2SC(=Nc3ccccc3)N(CCc3ccccn3)C2=O)c1 (stereo unspecified) | inconclusive: 12.6 µM [inhibitor, single point] |  |
| CCOC(=O)C1=CN(Cc2cccc(Br)c2)S(=O)(=O)N(C)C1C (stereo unspecified) | inconclusive: 28.2 µM [inhibitor, single point] |  |
| COc1cccc(-c2cnc(C(O)c3ccc(-c4ccccc4)cc3)[nH]2)c1 (stereo unspecified) | inconclusive: 10 µM [inhibitor, single point] |  |
| COC(=O)c1scc(C#N)c1N/N=C(\C#N)S(=O)(=O)c1ccc(Cl)cc1 | inconclusive: 12.6 µM [inhibitor, single point] |  |
| COc1cccc(C(=O)N(Cc2ccccc2)Cc2cc3cc4c(cc3[nH]c2=O)OCCO4)c1 |  | inactive: -21.7% |
| Cc1ccc2c(c1)/C(=C/c1ccccc1)C(=O)N2 | inconclusive: 12.6 µM [inhibitor, partial curve, poor fit] |  |

| Compound | Potency | activity change, negative = inhibition |
| --- | --- | --- |
| Cc1ccc(C)c(NS(=O)(=O)c2ccc(-n3cccn3)cc2)c1 | inconclusive: 6.31 µM [inhibitor, full curve, poor fit] |  |
| COc1ccc(NC(=O)CN2CCN(c3ccc(Cl)cc3)CC2)c(OC)c1 | inconclusive: 3.16 µM [inhibitor, full curve] |  |
| O=C(NC1CCCCCC1)c1ccc(CS(=O)c2cccc(Cl)c2)o1 (stereo unspecified) |  | inactive: -7.49% |
| O=C(NCc1ccccc1Cl)c1ccc2c(c1)N(Cc1ccccc1)CCS2 | inconclusive: 7.94 µM [inhibitor, partial curve, poor fit] |  |
| O=C(Cn1cc[n+](CC(=O)c2ccc(Cl)cc2Cl)c1)c1ccc(Cl)cc1Cl | inconclusive: 17.8 µM [inhibitor, single point] |  |
| CC(C)c1ccc(N(CC(=O)NCCCN2CCOCC2)S(=O)(=O)c2ccccc2)cc1 | inconclusive: 28.2 µM [inhibitor, single point] |  |
| CCC(C)NC(=O)c1cn(CC)c2ccc(S(=O)(=O)N3CCc4ccccc4C3)cc2c1=O (stereo unspecified) | inconclusive: 17.8 µM [inhibitor, partial curve, poor fit] |  |
| COc1ccccc1NC(=O)C(=O)Nc1ccccn1 |  | inactive: -6.43% |
| Cc1cccc(C(=O)N2CCC(=O)N(C(COCc3ccccc3)Cc3ccccc3)CC2)c1 (stereo unspecified) | inconclusive: 10 µM [inhibitor, partial curve, poor fit] |  |
| Cc1ccc(NC(=O)CN2c3cccc4cccc(c34)S2(=O)=O)cc1 | inconclusive: 12.6 µM [inhibitor, single point] |  |
| CC(C)c1ccc(NC(=O)[C@H](NC(=O)[C@@H]2Cc3ccccc3CN2)c2ccccc2)cc1 | inconclusive: 28.2 µM [inhibitor, single point] |  |
| C/C(=N\NC(=O)COc1ccc(C(C)(C)C)cc1)c1ccccc1 | inconclusive: 28.2 µM [inhibitor, single point] |  |
| O=C(Cc1ccc(N2CCNC2=O)cc1)N1CCCC(Nc2ccc(F)c(F)c2)C1 (stereo unspecified) | inconclusive: 1.12 µM [inhibitor, full curve, poor fit] |  |
| Cc1ccc(C(=O)NNC(=O)c2ccc3ccccc3c2O)cc1 | inconclusive: 10 µM [inhibitor, single point] |  |
| CC(C)(C)c1nnc(NC(=O)c2ccc3c(c2)OCO3)s1 |  | inactive: 15.7% |
| COc1cc(NC(=O)c2cc(Cl)nnc2Cl)cc(OC)c1OC | inconclusive: 28.2 µM [inhibitor, single point] |  |
| CN(CCOc1ccc(Cl)cc1)C(=O)c1cccc(S(=O)(=O)N2CCN(c3ccccc3)CC2)c1 | inconclusive: 11.2 µM [inhibitor, partial curve, poor fit] |  |
| Cc1ccc2c(c1)c(C)c(C)n2CC(O)Cn1nnc2ccccc21 (stereo unspecified) | inconclusive: 28.2 µM [inhibitor, single point] |  |
| CCN(CC)Cc1c[nH]c2c(C(=O)OC)cccc12 | inconclusive: 10 µM [inhibitor, partial curve, poor fit] |  |
